Reference: PMC12866851
No constants are given. Whether binding was seen depends on the method and setting. In cells and extracts the contact can be indirect. Some entries that bind do so weakly or less than the wild type.

Sequences of proteins named here, by UniProt entry; tags and fusion partners are left off.
UniProt Q15388: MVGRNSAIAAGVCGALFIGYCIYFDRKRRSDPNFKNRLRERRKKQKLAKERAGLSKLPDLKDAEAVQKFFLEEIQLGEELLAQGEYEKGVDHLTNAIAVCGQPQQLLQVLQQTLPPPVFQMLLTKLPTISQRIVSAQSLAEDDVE

Molecular target: T1, Long‐chain acyl‐CoA synthetase 5 (ACSL5) (human (endogenous in HCT116)) (UniProt Q9ULC5)
T1 sequence: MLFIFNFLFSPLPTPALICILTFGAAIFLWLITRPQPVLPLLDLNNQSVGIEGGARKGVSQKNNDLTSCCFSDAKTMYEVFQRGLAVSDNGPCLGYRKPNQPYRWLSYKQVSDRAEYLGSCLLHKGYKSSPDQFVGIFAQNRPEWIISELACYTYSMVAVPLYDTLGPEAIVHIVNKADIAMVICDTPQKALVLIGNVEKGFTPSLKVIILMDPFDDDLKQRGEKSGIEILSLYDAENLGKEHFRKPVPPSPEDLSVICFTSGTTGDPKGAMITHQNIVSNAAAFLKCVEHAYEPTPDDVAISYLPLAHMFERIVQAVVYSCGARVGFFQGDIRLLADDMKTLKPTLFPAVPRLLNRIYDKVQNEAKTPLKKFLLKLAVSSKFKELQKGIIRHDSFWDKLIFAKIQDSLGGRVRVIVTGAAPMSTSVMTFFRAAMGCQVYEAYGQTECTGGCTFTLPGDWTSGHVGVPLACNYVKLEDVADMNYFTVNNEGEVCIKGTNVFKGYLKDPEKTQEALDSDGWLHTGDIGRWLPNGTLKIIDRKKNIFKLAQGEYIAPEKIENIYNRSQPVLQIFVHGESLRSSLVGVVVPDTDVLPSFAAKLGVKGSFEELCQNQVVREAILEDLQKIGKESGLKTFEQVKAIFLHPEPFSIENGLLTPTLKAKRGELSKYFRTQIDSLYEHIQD
Experiment: co-IP; endogenous proteins of HCT116 lysate; IP lysis buffer (50 mM Tris-HCl pH 7.4, 150 mM NaCl, 1 mM EDTA, 5% glycerol, 0.4% Triton X-100, 0.4% NP-40); primary antibody overnight at 4 °C, Protein A/G beads 2 h, five washes; Western blot; in Figure 4I cells cultured with or without glutamine for 48 h

binding: binds
Substance: TOM20 (from UniProt Q15388 1-145) (receptor)
